According to the RNAGym collection of RNA variant scans (doi:10.7554/elife.90254):
Read counts are not given, so values of variants with three or more changes are uncertain.

B1: LINE1-mini (parent)
chain: GGCAGAGCUCAACACAGCGUGGCAAAGUGGCUGUGGCUAGACUGCC

Variants of: B1
Assay: self-cleavage, relative activity (ratio to wild type); higher = more cleavage; in vitro, sequencing; the parent is a self-cleaving ribozyme

Row | Variant | self-cleavage
1 | C3A C13U U20A | 0.4
2 | G5U A12U G21U G35U | 0.03
3 | G7U G17C A25G | 0.22
4 | A6U A11G A14C G30U | 0.03
5 | G5U C10A C45U | 0.02
6 | A4U A12U A25U A41U | 0.01
7 | U9C A14U C31U | 0.03
8 | C8A A11C A12G G21C C23A U28C C31U | 0.02
9 | A24G G27C G33U U43C G44U | 0.04
10 | G17C G22U A25C A39U | 0.77
11 | C3U G19C C23G G35A | 0.04
12 | G33U U38A G40U C42A | 0.03
13 | A11U A24C G36U | 0.01
14 | C3U A14C G30U U32G U38A | 0.02
15 | C10G G21A G30A U32A C46U | 0.02
16 | U20C C31G G35U | 0.05
17 | G5U C13A C18A | 0.03
18 | G5U C31G G40U | 0.12
19 | G2U C10A C13A | 0.31
20 | G1C A4U G5C G7C U38G A41C | 0
21 | G2C A11U C23A U28G G36C | 0.01
22 | C3U A25C C31A | 0.23
23 | G2A C10A A24G G44U C46G | 0.02
24 | U20C G29C G36A C37U | 0

Row | Variant | self-cleavage
25 | G2C G7A A24C C42U | 0.2
26 | G1A G7C C18U A25U U28A G36C C37G A39G C45G | 0.02
27 | G2C C3A A6U G19U A24C C42G | 0.02
28 | C3U A6G G36U | 0.35
29 | C18G G21U G27C | 2.21
30 | A14U G21C C23U G44A | 0.03
31 | C8U C13U A14U G19U U20G G21C C45G | 0.19
32 | G19A U34C G36U | 0.13
33 | C8A A11G C23G | 0.02
34 | G2A G5A A24C G36C A41G | 0.21
35 | C31U U32A U43C | 0.04
36 | A25G G29A U43C | 0.06
37 | A11U G29U A39U | 0.03
38 | C3A C13A A16G G29A | 0.08
39 | G2U A24C A26G G33C | 0.02
40 | A11U G19C C46A | 0.57
41 | G19C G27C A41U | 0.47
42 | G2A G35A A39C | 0.09
43 | U9A G19C C23A U32C U38A | 0.01
44 | G7C A26C C31U A39U | 0.02
45 | C8U C10G C42U | 0.02
46 | G1U C13U G29U U34A | 0.09
47 | C10U A14U G17A C18A | 0.03
48 | A11G C37A U38A G40U | 0.01

Row | Variant | self-cleavage
49 | G5C C23G A24U C31U A39C | 0.04
50 | A11C G29C A39U | 0.07
51 | G29A G36A G40U | 0.48
52 | A14G U38A C45G | 0.02
53 | G5U U20C C31G G40A C46U | 0.01
54 | G7C A11U C46G | 0.01
55 | C8A G22A A26U | 0.1
56 | G7C C31A U32G C42A C45U | 0.01
57 | C13U G22U C23A G29U U32G | 0.41
58 | G1C A4G U9A C13G G29A | 0.09
59 | A16U C37U C46U | 0.05
60 | C3U C37U C45G | 0.13
61 | G5C G21C A24G G27U | 0.04
62 | G1U C10G A25G C45A C46U | 0.01
63 | A6U C8U G29C C46G | 0.09
64 | G2C G27C U38A | 0.02
65 | G2U G5U G35U | 0.02
66 | G5A C18A C23U G33A | 0.03
67 | G17U C42U U43A | 0.03
68 | A14G G30U G40C | 0.06
69 | A12G G35U G40C | 0.01
70 | C13U G29A G40C | 0.01
71 | C10A A14G C37U A41G | 0.01
72 | C10U G17A C37A A39G C45G | 0.03

Row | Variant | self-cleavage
73 | C8U G19C G22C C46U | 0.04
74 | C10G U28C U38G | 0.02
75 | A11U A12C G22A C31U C37A U38G C46U | 0.01
76 | G1A C8G U9A C23G C42A | 0.18
77 | A6C G7C C23G G44A | 0.03
78 | A4U A6G A24G G27C | 0.05
79 | A11U A12G C18G C23U | 0.01
80 | G5U A12G U38C U43A | 0.02
81 | A24G G27C G40C | 0.17
82 | G1U U9C U38G G40U | 0.02
83 | G5A G17A U20C G40U | 0.05
84 | C8A G22A C37A A41U C46U | 0.08
85 | G5A G17A U32A U34A G35A | 0.05
86 | C10A G19C G33U | 0.02
87 | A6G U34C G36U C46U | 0.13
88 | A4G G5A C8A C42A | 0.41
89 | U20G C45A C46U | 0.04
90 | C15A U20G G40C C42A | 0.01
91 | G5U U34C C42A | 0.04
92 | A4C G5U C15A G17U A39G | 0.02
93 | G5U C15U A16U G29U | 0.04
94 | G21A G27A U38C | 0.69
95 | A4G A6G C13G A25C C37A A39U | 0.02
96 | G1U A4C U38A | 0.03

Row | Variant | self-cleavage
97 | C8G C10G C15U U20A G22C A24U | 0.01
98 | C8G C13G C23A U32C | 0.01
99 | G2U A4U A12C C13U G22A | 0.03
100 | A16G U20G G21A G33U | 0.02
101 | C8G C10A C42A | 0.03
102 | G27C C37A C45U | 0.05
103 | G7C A14G G17A | 0.06
104 | G27C G35U C37G A41C G44A | 0.05
105 | G5U A25G U32C | 0.04
106 | G7A C8A G22U G35U A39G G40A | 0.02
107 | A16C U20A C42U | 0.08
108 | G2U C15U A26G C42U | 0.09
109 | C15A C18G A26G | 0.04
110 | G30A G36C C37U G44U | 0.02
111 | G1U U20G C37A C42U | 0.01
112 | C10G G30U A39G | 0.01
113 | A11U A25G C37U | 0
114 | C8U G21A G29U C31U U32G G44U | 0.01
115 | A11G C31U A41U C42G | 0.01
116 | C3A U9A C13G C15G A16U G29C G30U G40A | 0.02
117 | C13A A14U G21U A24G | 0.01
118 | G2U A4G G22A C23A C42A | 0.21
119 | C15A A16G G22U | 0.04
120 | C15A C18A C23G U43A G44A C45U | 0

Row | Variant | self-cleavage
121 | G17U C37U A39U C42G G44A | 0.07
122 | C31G G33C U38C | 0.03
123 | C8U U34G U43C | 0.16
124 | A39U C42A C46U | 0.05
125 | C3G G5U C10G C23G G27A A39C | 0
126 | G5U U9G U28A C46A | 0.08
127 | U9C C23G C31G G33C C37G U38G C46A | 0
128 | C13U C31G A39G | 0.04
129 | A4U G17U G40U C42A | 0.16
130 | A12G U28C G30U U38A A39U C42G | 0
131 | U9G A24C G30A | 0.03
132 | U9A C10A A26U | 0.01
133 | G7A U9A C23G | 0.09
134 | G27A G29U C46G | 0.5
135 | G19U G33C A41C | 0.14
136 | C3A A11C C13A C31U G36U | 0.01
137 | C10A U28G G35U | 0.02
138 | A14C A26C U32A C37A U38C A39C | 0.05
139 | A12G G33C C45A | 0.01
140 | C3U U20G A25G C37U C46U | 0.01
141 | G1A C23G G33U | 0.65
142 | A11C G29C A39C | 0.02
143 | A6C G7A U20G C42U | 0.06
144 | G2C U9G G27U | 0.03

Row | Variant | self-cleavage
145 | C13G G17U A26U | 0.02
146 | C8G G21U G29U U34G C46U | 0.01
147 | G19C G22A U34G | 0.09
148 | U20C G27A U32A G33A | 0.03
149 | G5C C31U C46U | 0.03
150 | U9A C18U A25U | 0.07
151 | G7U A12G C31U U43C | 0
152 | G21U C31U G44C | 0.09
153 | A4G G27A U28C G29A | 0.13
154 | A14C C18A C45U | 0.03
155 | A16C C23A C37A | 0.06
156 | A6G A14U A24G C42A | 0.06
157 | A4C G27C U28C C31U C37G | 0.04
158 | G17U C37U C42A | 0.01
159 | A16U G19A G36C | 0.16
160 | G2U G35U C42U | 0
161 | A4C C10A G36U G40U | 0.02
162 | G1U G21C G22A U32A C46A | 0.35
163 | A6U A16C C18A U20A G30U | 0.08
164 | C23U G27U G30U G44A | 0.46
165 | A4C G17C G30U C37U G40C | 0.2
166 | C13A C23A A25G | 0.06
167 | G1C C10A C13A G33A | 0.02
